# Data published in the supplement of paper PMC4967469.
# Assays:
# Test in all cases: Viability of human cancer cell lines after 72 h of drug (GDSC screen)
# Epothilone B = compound: C/C(=C\c1csc(C)n1)[C@@H]1C[C@@H]2O[C@]2(C)CCC[C@H](C)[C@H](O)[C@@H](C)C(=O)C(C)(C)[C@@H](O)CC(=O)O1 [Epothilone B]; settings: top dose 0.032 µM; top dose inferred
# Protocol: (§1)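 Human cancer cell lines in 384-well plates, medium with 10% serum, drug for 72 h over a 256-fold dose range (nine 2-fold or five 4-fold steps up to the top dose). Adherent lines were fixed and stained with the nucleic acid dye Syto60, suspension lines read with resazurin; signal relative to control wells, capped at 0 and 100%. One two-parameter sigmoid per drug and line, fitted in a mixed model over all curves with the slope shared within a line.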
# Y-39983 = compound: C[C@@H](N)c1ccc(C(=O)Nc2ccnc3[nH]ccc23)cc1 [Y-39983]; settings: top dose 20 µM; top dose inferred
# Protocol: as §1
# TPCA-1 = compound: NC(=O)Nc1sc(-c2ccc(F)cc2)cc1C(N)=O [TPCA-1]; settings: top dose 20 µM
# Protocol: as §1
# AZD-0530 = compound: CN1CCN(CCOc2cc(OC3CCOCC3)c3c(Nc4c(Cl)ccc5c4OCO5)ncnc3c2)CC1 [AZD-0530]; settings: top dose 2 µM
# Protocol: as §1
# PLX4720 = compound: CCCS(=O)(=O)Nc1ccc(F)c(C(=O)c2c[nH]c3ncc(Cl)cc23)c1F [PLX4720]; settings: top dose 10 µM
# Protocol: as §1
# Pyrimethamine = compound: CCc1nc(N)nc(N)c1-c1ccc(Cl)cc1 [Pyrimethamine]; settings: top dose 20 µM; top dose inferred
# Protocol: as §1
# Imatinib = compound: Cc1ccc(NC(=O)c2ccc(CN3CCN(C)CC3)cc2)cc1Nc1nccc(-c2cccnc2)n1 [Imatinib]; settings: top dose 2 µM
# Protocol: as §1
# PHA-793887 = compound: CC(C)CC(=O)Nc1n[nH]c2c1CN(C(=O)C1CCN(C)CC1)C2(C)C [PHA-793887]; settings: top dose 10.24 µM
# Protocol: as §1
# [1] = screen: GDSC drug entry 1371, top dose inferred
Cell Line,AUC (Epothilone B),IC50 (Epothilone B),AUC (Y-39983),IC50 (Y-39983),AUC (TPCA-1),IC50 (TPCA-1),AUC (AZD-0530),IC50 (AZD-0530),AUC (PLX4720; screen: GDSC drug entry 1036),IC50 (PLX4720; screen: GDSC drug entry 1036),AUC (PLX4720; [1]),IC50 (PLX4720; [1]),AUC (Pyrimethamine),IC50 (Pyrimethamine),AUC (Imatinib),IC50 (Imatinib),AUC (PHA-793887),IC50 (PHA-793887)
"ALL-PO (lymphoblastic leukaemia, suspension)",0.456,0.00151 µM,0.844,15.6 µM,0.321,0.383 µM,0.966,> 2 µM,0.781,4.4 µM,0.977,> 10 µM,0.485,1.13 µM,0.926,> 2 µM,0.417,0.373 µM
"AM-38 (glioma, semi-adherent)",0.732,0.00928 µM,0.904,> 20 µM,0.745,6.4 µM,0.981,> 2 µM,0.963,> 10 µM,0.985,> 10 µM,0.973,> 20 µM,0.984,> 2 µM,0.847,7.81 µM
"AMO-1 (haematopoietic neoplasm, suspension)",0.539,0.00251 µM,0.881,15.9 µM,0.82,9.46 µM,0.985,> 2 µM,0.991,> 10 µM,0.99,> 10 µM,0.861,13.1 µM,0.99,> 2 µM,0.612,1.24 µM
"ATN-1 (T-cell lymphoblastic leukaemia, suspension)",0.614,0.00404 µM,0.91,> 20 µM,0.404,0.693 µM,0.969,> 2 µM,0.37,0.28 µM,0.951,> 10 µM,0.538,1.58 µM,0.98,> 2 µM,0.755,3.26 µM
"CP67-MEL (melanoma, adherent)",–,–,–,–,–,–,0.95,> 2 µM,–,–,–,–,–,–,0.95,> 2 µM,–,–
"CRO-AP2 (B-cell lymphoma, suspension)",–,–,–,–,–,–,0.99,> 2 µM,0.983,> 10 µM,0.989,> 10 µM,0.865,13.9 µM,0.99,> 2 µM,–,–
"D-336MG (glioma, adherent)",–,–,0.85,> 20 µM,0.905,> 20 µM,0.711,0.592 µM,0.981,> 10 µM,0.937,> 10 µM,0.974,> 20 µM,0.96,> 2 µM,0.824,8.5 µM
"HCC1599 (breast, suspension)",0.712,0.00876 µM,0.841,17 µM,0.751,7.47 µM,0.934,> 2 µM,–,–,–,–,0.819,13.6 µM,0.97,> 2 µM,0.54,0.836 µM
"IST-SL2 (small cell lung carcinoma, suspension)",0.722,0.00845 µM,–,–,–,–,0.9,> 2 µM,0.95,> 10 µM,0.972,> 10 µM,0.796,9.24 µM,0.984,> 2 µM,0.567,0.975 µM
"SW982 (soft tissue, adherent)",0.365,0.000836 µM,0.848,15.6 µM,0.817,11.6 µM,0.864,1.84 µM,0.797,4.87 µM,0.819,5.93 µM,–,–,0.984,> 2 µM,0.7,2.38 µM
"TE-9 (oesophagus, adherent)",0.477,0.00173 µM,0.984,> 20 µM,0.979,> 20 µM,0.972,> 2 µM,0.978,> 10 µM,0.979,> 10 µM,0.982,> 20 µM,–,–,0.987,> 10.2 µM
"TE-10 (oesophagus, adherent)",0.378,0.000927 µM,0.98,> 20 µM,0.942,> 20 µM,0.846,1.42 µM,0.988,> 10 µM,0.986,> 10 µM,0.937,> 20 µM,–,–,0.922,> 10.2 µM
"TE-11 (oesophagus, adherent)",0.457,0.00154 µM,0.987,> 20 µM,0.974,> 20 µM,0.85,1.31 µM,0.929,> 10 µM,0.958,> 10 µM,–,–,0.97,> 2 µM,0.99,> 10.2 µM
"TE-15 (oesophagus, suspension)",0.203,0.000231 µM,0.979,> 20 µM,0.611,2.64 µM,0.65,0.345 µM,0.915,> 10 µM,0.954,> 10 µM,0.974,> 20 µM,–,–,0.809,6.19 µM
"TGBC1TKB (biliary tract, adherent)",0.88,> 0.032 µM,0.983,> 20 µM,0.965,> 20 µM,0.959,> 2 µM,0.98,> 10 µM,0.985,> 10 µM,0.989,> 20 µM,–,–,0.989,> 10.2 µM
"TGW (neuroblastoma, adherent)",0.802,0.0132 µM,0.821,9.51 µM,0.815,9.06 µM,0.984,> 2 µM,0.988,> 10 µM,0.981,> 10 µM,0.937,> 20 µM,–,–,0.95,> 10.2 µM
"TK10 (kidney, adherent)",0.51,0.00214 µM,0.908,> 20 µM,0.691,4.86 µM,0.809,1.32 µM,0.934,> 10 µM,0.968,> 10 µM,0.757,8.25 µM,–,–,0.928,> 10.2 µM
"TUR (B-cell lymphoma, suspension)",0.485,0.00183 µM,0.885,19 µM,0.422,0.778 µM,0.988,> 2 µM,0.917,> 10 µM,0.951,> 10 µM,0.978,> 20 µM,–,–,0.379,0.305 µM
"U-87-MG (glioma, adherent)",0.792,0.0173 µM,0.975,> 20 µM,0.985,> 20 µM,0.98,> 2 µM,0.981,> 10 µM,0.952,> 10 µM,0.962,> 20 µM,–,–,0.882,> 10.2 µM
"U-698-M (B-cell leukaemia, suspension)",0.692,0.00692 µM,0.75,6.53 µM,0.713,5 µM,0.985,> 2 µM,0.937,> 10 µM,0.961,> 10 µM,0.889,> 20 µM,–,–,0.756,3.51 µM
"UACC-257 (melanoma, adherent)",0.793,0.0188 µM,0.96,> 20 µM,0.894,> 20 µM,0.973,> 2 µM,0.632,1.58 µM,0.633,1.6 µM,0.603,2.57 µM,–,–,0.84,9.71 µM
"VAL (B-cell lymphoma, suspension)",0.839,0.022 µM,0.793,9.15 µM,0.599,2.34 µM,0.986,> 2 µM,0.984,> 10 µM,0.983,> 10 µM,0.726,5.5 µM,–,–,0.594,1.16 µM
"VCaP (prostate, adherent)",0.67,0.00608 µM,0.987,> 20 µM,0.764,7.54 µM,0.978,> 2 µM,0.987,> 10 µM,0.986,> 10 µM,0.978,> 20 µM,–,–,0.905,> 10.2 µM
"WIL2-NS (lymphoid neoplasm, suspension)",0.541,0.00253 µM,0.84,10.2 µM,0.551,1.68 µM,0.962,> 2 µM,0.992,> 10 µM,0.99,> 10 µM,0.492,1.19 µM,–,–,0.129,0.061 µM
"WSU-DLCL2 (B-cell lymphoma, suspension)",0.991,> 0.032 µM,0.942,> 20 µM,0.937,> 20 µM,0.986,> 2 µM,0.983,> 10 µM,0.93,> 10 µM,0.984,> 20 µM,–,–,0.858,6.25 µM
"WSU-NHL (lymphoid neoplasm, suspension)",0.626,0.00426 µM,0.631,2.73 µM,0.411,0.737 µM,0.976,> 2 µM,0.936,> 10 µM,0.99,> 10 µM,0.918,> 20 µM,–,–,0.884,8.77 µM
"YT (lymphoid neoplasm, suspension)",0.821,0.015 µM,0.878,15.1 µM,0.077,< 0.0781 µM,0.987,> 2 µM,0.837,5.32 µM,0.992,> 10 µM,0.99,> 20 µM,–,–,0.886,8.32 µM
"no-10 (glioma, adherent)",0.65,0.00573 µM,0.935,> 20 µM,0.969,> 20 µM,0.97,> 2 µM,–,–,0.966,> 10 µM,0.954,> 20 µM,–,–,0.676,2.23 µM
"no-11 (glioma, adherent)",0.861,> 0.032 µM,0.96,> 20 µM,0.92,> 20 µM,0.977,> 2 µM,0.952,> 10 µM,0.978,> 10 µM,0.982,> 20 µM,–,–,0.873,> 10.2 µM

# The IC50 comes from the fitted curve, where viability falls to half of the control; a limit (>, <) means that the fit lies beyond the doses tested. AUC is the area under the same curve over the 256-fold range up to the top dose, as a fraction: 1 means no effect, lower means more sensitive. For some of these results: An inferred top dose was calculated from the reported fits. For some of these results: Drugs with an entry number were screened twice under separate entries, and the two screens often disagree.
